In test [1] the target is GFP-tagged ATP7B-H1069Q (UniProt P35670). Nature of the test: co-IP; COS7 cells transfected with GFP-tagged ATP7B forms, incubated with 12.5 μM TAMRA-tagged peptide, lysed 48 h post-transfection, immunoprecipitated with anti-GFP antibody; peptide detected in the precipitate by nanoLC-ESI-Q-Orbitrap SIM-MS at m/z 560.69 ± 0.6 (5+) and MS/MS; only the binder purified.
For test [2], the target named is GFP-tagged ATP7B (UniProt P35670). Described as above.
Test [3] addresses GFP-tagged ATP7B-H1069Q (UniProt P35670). Nature of the test: FRET or BRET; FLIM-FRET, donor GFP on ATP7B forms, acceptor TAMRA on the peptide; COS7 cells incubated with 12.5 μM peptide, fixed with 2% paraformaldehyde 48 h post transfection; only the binder purified. A general note: In BRET a luciferase serves as donor, and the signal depends on an acceptor being close.
Test [4] deals with GFP-tagged ATP7B (UniProt P35670). The test is described as above.

By UniProt entry, the sequences of proteins in these tests, tags left out. Where a name states a change or a piece, a line headed by the entry shows the natural chain unless it says otherwise.
UniProt P35670: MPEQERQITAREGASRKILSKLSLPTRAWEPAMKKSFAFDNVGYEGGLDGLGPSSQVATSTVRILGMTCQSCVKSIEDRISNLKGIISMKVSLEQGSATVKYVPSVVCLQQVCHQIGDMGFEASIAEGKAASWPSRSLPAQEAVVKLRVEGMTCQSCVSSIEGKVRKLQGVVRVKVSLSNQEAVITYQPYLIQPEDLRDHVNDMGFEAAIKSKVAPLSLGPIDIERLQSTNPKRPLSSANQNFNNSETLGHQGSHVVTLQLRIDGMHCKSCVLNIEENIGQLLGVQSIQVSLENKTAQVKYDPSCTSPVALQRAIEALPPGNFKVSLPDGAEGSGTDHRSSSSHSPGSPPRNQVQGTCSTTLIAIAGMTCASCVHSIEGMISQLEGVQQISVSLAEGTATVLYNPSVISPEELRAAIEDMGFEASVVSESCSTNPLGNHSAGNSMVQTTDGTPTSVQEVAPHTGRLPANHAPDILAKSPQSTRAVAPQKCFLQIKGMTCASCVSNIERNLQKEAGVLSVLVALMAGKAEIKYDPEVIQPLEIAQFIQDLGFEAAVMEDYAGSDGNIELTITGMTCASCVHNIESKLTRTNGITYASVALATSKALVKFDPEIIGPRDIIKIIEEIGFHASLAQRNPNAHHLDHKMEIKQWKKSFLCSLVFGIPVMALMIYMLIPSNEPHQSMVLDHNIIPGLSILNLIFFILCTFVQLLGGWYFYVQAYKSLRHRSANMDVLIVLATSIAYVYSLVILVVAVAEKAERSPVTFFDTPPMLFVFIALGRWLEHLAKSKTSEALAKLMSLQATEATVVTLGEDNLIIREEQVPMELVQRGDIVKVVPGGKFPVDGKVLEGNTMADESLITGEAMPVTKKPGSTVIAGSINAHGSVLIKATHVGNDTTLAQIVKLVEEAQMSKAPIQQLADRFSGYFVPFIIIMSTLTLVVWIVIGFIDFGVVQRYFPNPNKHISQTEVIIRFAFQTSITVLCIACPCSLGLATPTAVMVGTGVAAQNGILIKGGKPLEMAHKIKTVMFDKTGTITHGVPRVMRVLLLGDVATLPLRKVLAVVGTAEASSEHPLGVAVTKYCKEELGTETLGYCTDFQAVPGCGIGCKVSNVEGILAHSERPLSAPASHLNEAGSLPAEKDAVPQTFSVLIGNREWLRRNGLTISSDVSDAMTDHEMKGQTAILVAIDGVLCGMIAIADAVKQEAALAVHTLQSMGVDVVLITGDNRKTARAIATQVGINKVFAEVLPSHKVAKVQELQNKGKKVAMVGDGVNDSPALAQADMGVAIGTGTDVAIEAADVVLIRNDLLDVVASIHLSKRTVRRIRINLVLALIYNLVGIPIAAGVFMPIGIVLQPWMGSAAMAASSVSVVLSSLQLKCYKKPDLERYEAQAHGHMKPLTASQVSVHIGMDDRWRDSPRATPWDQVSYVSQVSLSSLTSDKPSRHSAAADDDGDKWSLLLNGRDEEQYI

These are yes or no findings as the source states them, for the method shown. Binding seen in cells or lysates may run through a third protein. Some entries that bind do so weakly or less than the wild type. Where a sequence is shown, tags or fusion partners need not be part of it.

B1: TAMRA-tagged Pept 73–92 (residues 73–92 of the α-crystallin domain of αB-crystallin, CRYAB) (peptide)
peptide: DRFSVNLDVKHFSPEELKVK
modifications: 5-TAMRA tagged
In the case of B1, the binding entry in test [1] and in test [2] was “binds” each time.

B2: TAMRA-tagged control peptide 2 (scrambled sequence of Pept 73–92) (peptide)
peptide: DLPLKVNVEDKFHRSFVESK
modifications: 5-TAMRA tagged
For the molecule B2, the binding entry in test [1], in test [2], in test [3] and in test [4] was “no binding (tested: 12.5 μM)” each time.

B3: TAMRA-tagged control peptide 1 (inverted sequence of Pept 73–92) (peptide)
peptide: KVKLEEPSFHKVDLNVSFRD
modifications: 5-TAMRA tagged
B3: the binding result in test [1], in test [2], in test [3] and in test [4] was “no binding (tested: 12.5 μM)” throughout.

Values taken from publication PMC6073935.
